Measurements as given in publication PMC3398040.
No constants are given. Whether binding was seen depends on the method and setting. In cells and extracts the contact can be indirect. Some results given as binding are weak or reduced against the parent protein; the word gives no strength. Where a sequence is shown, tags or fusion partners need not be part of it.

Experiments:
[1] = target: T1, HIS-tagged Ddi1 (^HISDdi1) (yeast) (UniProt P40087); assay: pull-down; HIS-Ddi1 on Ni beads incubated with GST-Ufo1 and/or GST-Rpn1 lysate together with yeast extract with ubiquitylated GFP-Ho (Figure 5A lanes 8-10); only the target purified
T1 sequence: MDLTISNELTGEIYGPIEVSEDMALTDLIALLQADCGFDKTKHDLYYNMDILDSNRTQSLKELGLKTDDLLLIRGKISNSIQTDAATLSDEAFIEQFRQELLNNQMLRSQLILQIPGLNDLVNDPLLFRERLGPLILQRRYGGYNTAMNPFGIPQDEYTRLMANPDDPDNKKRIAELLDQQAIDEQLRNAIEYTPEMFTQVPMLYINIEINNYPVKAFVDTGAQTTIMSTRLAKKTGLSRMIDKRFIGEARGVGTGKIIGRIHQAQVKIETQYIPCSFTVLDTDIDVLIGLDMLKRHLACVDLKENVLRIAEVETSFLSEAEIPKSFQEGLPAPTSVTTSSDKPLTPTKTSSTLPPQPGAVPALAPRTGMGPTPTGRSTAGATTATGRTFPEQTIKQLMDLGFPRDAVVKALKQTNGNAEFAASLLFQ

[2] = target: T2, GST-tagged full-length Ufo1 (^GSTFL-Ufo1) (yeast) (UniProt Q04511); assay: pull-down; GST-Ufo1 or GST-Ufo1-WD40 on GSH beads incubated with yeast extract (wild type or ddi1Δ) with myc-Cdc53, a GFP-tagged 19S RP subunit and GFP-Ho present (Figures 2A, 2B, S2, S3); only the target purified
T2 sequence: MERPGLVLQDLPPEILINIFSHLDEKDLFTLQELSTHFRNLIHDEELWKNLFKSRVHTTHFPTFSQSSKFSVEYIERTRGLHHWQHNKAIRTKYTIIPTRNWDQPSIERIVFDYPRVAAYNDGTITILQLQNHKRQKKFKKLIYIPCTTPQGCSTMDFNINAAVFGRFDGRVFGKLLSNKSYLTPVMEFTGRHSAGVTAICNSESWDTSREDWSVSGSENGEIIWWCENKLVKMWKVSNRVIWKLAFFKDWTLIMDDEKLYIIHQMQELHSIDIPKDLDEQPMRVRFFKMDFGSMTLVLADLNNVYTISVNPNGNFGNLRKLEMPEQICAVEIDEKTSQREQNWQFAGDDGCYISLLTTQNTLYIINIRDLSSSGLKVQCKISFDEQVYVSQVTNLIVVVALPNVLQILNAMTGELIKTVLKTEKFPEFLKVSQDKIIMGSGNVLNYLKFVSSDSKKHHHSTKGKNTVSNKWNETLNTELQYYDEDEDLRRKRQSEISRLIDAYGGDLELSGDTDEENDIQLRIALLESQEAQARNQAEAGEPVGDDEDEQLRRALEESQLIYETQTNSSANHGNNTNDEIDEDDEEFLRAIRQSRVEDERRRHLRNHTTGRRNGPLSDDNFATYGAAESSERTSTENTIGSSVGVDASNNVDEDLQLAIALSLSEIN

[3] = target: T2, GST-tagged full-length Ufo1 (^GSTFL-Ufo1) (yeast); assay: co-IP; bacterial lysates with HIS-Rpn1 and GST-Ufo1 mixed with yeast extract with myc-Cdc53 and GFP-Ho; aliquots immunoprecipitated with anti-myc, anti-GFP, anti-GST or anti-HIS and Protein A beads (Figure 4, + Ho)
[4] = target: T1, HIS-tagged Ddi1 (^HISDdi1) (yeast); assay: pull-down; HIS-Ddi1 on Ni beads incubated with one lysate or extract alone (GST-Rpn1 or GST-Ufo1 bacterial lysate, GFP-Ho or GFP-Ufo1 yeast extract); washed with 2.5% Triton X100 and 100 mM imidazole (Figure 5A lanes 4-6, Figure 5B lanes 3 and 4); only the target purified

Measured: binding

B1: GFP-tagged Ho endonuclease (^GFPHo) (enzyme, UniProt P09932 1-586)
chain: MLSENTTILMANGEIKDIANVTANSYVMCADGSAARVINVTQGYQKIYNIQQKTKHRAFEGEPGRLDPRRRTVYQRLALQCTAGHKLSVRVPTKPLLEKSGRNATKYKVRWRNLQQCQTLDGRIIIIPKNHHKTFPMTVEGEFAAKRFIEEMERSKGEYFNFDIEVRDLDYLDAQLRISSCIRFGPVLAGNGVLSKFLTGRSDLVTPAVKSMAWMLGLWLGDSTTKEPEISVDSLDPKLMESLRENAKIWGLYLTVCDDHVPLRAKHVRLHYGDGPDENRKTRNLRKNNPFWKAVTILKFKRDLDGEKQIPEFMYGEHIEVREAFLAGLIDSDGYVVKKGEGPESYKIAIQTVYSSIMDGIVHISRSLGMSATVTTRSAREEIIEGRKVQCQFTYDCNVAGGTTSQNVLSYCRSGHKTREVPPIIKREPVYFSFTDDFQGESTVYGLTIEGHKNFLLGNKIEVKSCRGCCVGEQLKISQKKNLKHCVACPRKGIKYFYKDWSGKNRVCARCYGRYKFSGHHCINCKYVPEAREVKKAKDKGEKLGITPEGLPVKGPECIKCGGILQFDAVRGPHKSCGNNAGARIC
modifications: ubiquitylated as produced in yeast (sites not given)
binds: [1] | [2] | [3] | [4]
